Test results reported in paper PMC4336329 (PLoS ONE, 2015).
Hit rate of the full screen: of about 310,000 compounds, about 14,000 (4.5%) showed an effect of 50% or more. Effects have a minus sign here. The list shows a part of the results.

Each compound was assayed against human ether-à-go-go-related gene (hERG) potassium channel (human, UniProt Q12809) (assay: primary screen, population patch clamp on CHO cells stably expressing hERG).
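Note: peak tail current of the secondary pulse compared with the same well before compound.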

human ether-à-go-go-related gene (hERG) potassium channel, sequence (Q12809 whole entry, looked up): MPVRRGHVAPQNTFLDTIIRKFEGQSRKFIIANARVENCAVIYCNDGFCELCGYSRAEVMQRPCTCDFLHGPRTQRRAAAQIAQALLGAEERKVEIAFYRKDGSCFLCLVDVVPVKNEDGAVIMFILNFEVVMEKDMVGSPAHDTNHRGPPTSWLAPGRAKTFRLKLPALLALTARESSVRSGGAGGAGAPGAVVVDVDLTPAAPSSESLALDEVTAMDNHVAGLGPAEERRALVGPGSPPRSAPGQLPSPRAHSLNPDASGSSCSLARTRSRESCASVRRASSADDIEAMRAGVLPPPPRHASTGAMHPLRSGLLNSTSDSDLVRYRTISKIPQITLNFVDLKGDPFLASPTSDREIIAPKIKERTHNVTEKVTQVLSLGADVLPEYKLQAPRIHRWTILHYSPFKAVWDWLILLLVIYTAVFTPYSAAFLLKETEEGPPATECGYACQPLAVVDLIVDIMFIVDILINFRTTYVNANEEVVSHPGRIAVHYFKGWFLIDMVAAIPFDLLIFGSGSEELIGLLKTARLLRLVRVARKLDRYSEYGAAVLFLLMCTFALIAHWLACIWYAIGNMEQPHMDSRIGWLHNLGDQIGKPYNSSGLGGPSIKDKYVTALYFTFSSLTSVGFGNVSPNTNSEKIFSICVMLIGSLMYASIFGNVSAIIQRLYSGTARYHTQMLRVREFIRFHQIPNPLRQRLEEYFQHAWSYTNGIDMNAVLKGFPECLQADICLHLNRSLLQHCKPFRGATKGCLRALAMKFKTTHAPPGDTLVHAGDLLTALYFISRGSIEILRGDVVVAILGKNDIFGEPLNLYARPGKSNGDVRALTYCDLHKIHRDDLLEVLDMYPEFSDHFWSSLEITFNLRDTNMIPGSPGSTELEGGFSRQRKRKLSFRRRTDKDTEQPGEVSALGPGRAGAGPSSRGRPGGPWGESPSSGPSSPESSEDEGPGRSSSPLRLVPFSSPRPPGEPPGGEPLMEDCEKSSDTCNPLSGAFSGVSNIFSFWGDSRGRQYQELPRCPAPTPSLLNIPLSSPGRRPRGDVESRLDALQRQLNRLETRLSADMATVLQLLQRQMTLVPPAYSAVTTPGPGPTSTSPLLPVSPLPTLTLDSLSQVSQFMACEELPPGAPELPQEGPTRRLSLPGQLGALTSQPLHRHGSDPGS

Compound	hERG current change (%, negative = inhibition) at 10uM [%]
S=C(Nc1ccccc1)Nc1ccc(OCc2ccc(Cl)cc2Cl)cc1	12.6
COC(=O)c1ccc(-n2c(C)cc(C(=O)CCl)c2C)cc1	-2.79
O=S(=O)(/C=C/c1ccccc1)Nc1cccc(S(=O)(=O)NC2=NCCC2)c1	20.4
Cc1ccc(OCC(=O)Nc2cccc(-c3nnc(-c4ccccc4)o3)c2)cc1	14.5
CCC(=O)Nc1nnc(S(=O)(=O)N(C)Cc2ccco2)s1	14.4
CCOC(=O)c1c(NC(=O)c2ccn(CC)n2)sc2c1CCCC2	-4.2
CN1C=CC=C/C1=C1/SC(=S)N(Cc2ccccc2)C1=O	-15.7
COc1ccc(NC(=O)CSC2=NCCN2)cc1.Cl	-7.1
O=C(Cc1ccccc1)Nc1ccccc1N1CCN(c2ccccc2)CC1	11.9
CCCCCCCn1ccc(O)c(CC(=O)OC)c1=O	-13.5
COC(=O)c1ccc(CON2C(=O)c3ccccc3C2=O)cc1	2.54
CC1CCN(C(=O)CC(NC(N)=O)c2ccccc2Cl)CC1 (stereo not shown)	17.5
O=C(Nc1nnc2n1CCS2)c1ccc(Br)o1	18.9
O=C1CC(Nc2ccccc2)C(=O)N1CCc1ccccc1 (stereo not shown)	15.9
CC(=O)N[C@@H](Cc1c[nH]c2ccccc12)C(=O)NC1CCCc2ccccc21 (stereo partly shown)	21
Br.COC(=O)CN1C2=NCCCN2c2ccccc21	-11.8
O=C(CCCC(=O)N(c1cccc(F)c1)C(C(=O)NC1CCCC1)c1ccc(O)cc1)Nc1ccccn1 (stereo not shown)	8.76
COc1cccc(C(=O)COc2ccc3c(C)c(Cc4ccccc4)c(=O)oc3c2C)c1	-15.2
COc1ccc(/C=C/C(=O)OC(C)C(=O)c2ccccc2)cc1OC (stereo not shown)	-10.5
COc1ccc(C(=O)Nc2ccc(S(=O)(=O)N3CCOCC3)cc2)cc1OC	2.58
COC(=O)Cc1c(C(=O)OC)nnn1-c1ccc(OC)cc1	13.8
COc1ccccc1NS(=O)(=O)c1ccc(OC)c([N+](=O)[O-])c1	0.00128
Cc1nn(C)cc1NC(=O)c1cc2nc(-c3ccco3)cc(C(F)(F)F)n2n1	4.66

Compound	hERG current change (%, negative = inhibition) at 10uM [%]
O=C(NCc1cccnc1)C1CC(c2ccccc2Cl)=NO1 (stereo not shown)	2.13
CCC(C)[C@H](NC(=O)NCCC1=CCCCC1)C(=O)O (stereo partly shown)	-7.02
Cc1cc(OCC(O)CN2CCOCC2)cc(C)c1Cl.Cl (stereo not shown)	14.4
CCC(C)C(NC(=O)C1CCC(C)CC1)C(=O)Nc1cc(OC)ccc1OC (stereo not shown)	-26.4
COc1ccc(NS(=O)(=O)c2ccc3oc(SC4CCOC4=O)nc3c2)cc1 (stereo not shown)	-23.8
O=C(NC(Cc1ccccc1)C(=O)O)/C(=C\c1ccc(Cl)cc1)NC(=O)c1ccco1 (stereo not shown)	2.34
COc1ccc(S(=O)(=O)N2CCCCC2)cc1NC(=O)Cc1ccsc1	7.12
CC(C)C1(C)N=C(c2ncccc2C(=O)[O-])NC1=O.[Na+] (stereo not shown)	8.96
CCN(CC)C(=O)CN1CCN(Cc2ccc3c(c2)OCO3)CC1.O=C(O)C(=O)O	17.9
COc1cccc(N2CCN(c3ccc4nnc(CCC(=O)Nc5cc(C)ccn5)n4n3)CC2)c1	-11.6
CCC(C)(C)N=C(NC#N)Nc1cccnc1	6.22
O=C1/C(=C/c2ccc([N+](=O)[O-])cc2)CCc2ccccc21	-0.452
CC(C)(C)C1CCC(=O)N(CCC#N)CC1 (stereo not shown)	-2.41
Cc1cc(C(=O)N2CCN(S(=O)(=O)c3ccccc3F)CC2)c(C)o1	15.6
C=CCOC(=O)C1=C[C@@H](c2coc3ccccc3c2=O)[C@H](CCCO)[C@@H](OCC)O1	-27.5
O=[N+]([O-])c1ccc(O)c(/C=N/n2cnc3ccccc32)c1	19.2
Nc1ccc2nc(SCC(=O)Nc3ccc(N4CCOCC4)c(Cl)c3)sc2c1	7.12
C=CCn1c(SCC(O)Cn2c3ccccc3c3ccccc32)nnc1-c1ccco1 (stereo not shown)	2.05
CCOc1ccc(S(=O)(=O)N2CCN(C(=O)c3cccnc3)CC2)cc1	-29.3
O=C(CSc1nc2ccccc2c(=O)n1Cc1ccc(Cl)cc1)NCc1cccs1	-52.5
CCOc1ccc(CCNC(=O)CCc2nc(-c3ccc(C)cc3)no2)cc1OCC	-1.95
CCc1ccc(C2=NN(CCC(=O)NC3CCCCCC3)C(=O)CC2)cc1	-33.4
CCCn1c(COc2ccccc2OC)nc2ccccc21	-10.3
